Data reported in PubChem BioAssay AID588453 (National Center for Advancing Translational Sciences (NCATS), 2011).
“And” between values parts separate entries of the source, which are not always exact repeats. Equal values may be shown once. In all, about 390,000 compounds went through this assay and about 4,000 (1%) were called active. Inconclusive results, whose numbers are uncertain, are shown with a selection of clear calls. Calls follow the shape of the dose curve; as a rule, active = well fitted inhibition curve with a large enough effect; inconclusive = small, poorly fitted or top-dose-only effect; inactive = no such curve, though single readings can be large or run the other way. Potencies beside an inconclusive call are fits to weak or partial responses and may not hold up.

biological target: Thioredoxin reductase 1, cytoplasmic (Rattus norvegicus) (UniProt O89049); assay: qHTS Assay for Inhibitors of Mammalian Selenoprotein Thioredoxin Reductase 1 (TrxR1): qHTS; details: recombinant rTrxR1, NADPH fluorescence consumption, selenite substrate; series mostly up to 114 µM; activity change, negative = inhibition: at the top concentration; also: nearly all actives have a fitted effect of over 65% in size
Source text: The selenoprotein thioredoxin reductase (TrxR; EC 1.8.1.9) is a FAD containing homodimeric pyridine nucleotide-disulfide oxidoreductase with many cellular roles. Together with NADPH and its prime substrate thioredoxin (Trx), the enzyme forms the core of the Trx system. The mammalian Trx system exerts a wide spectrum of functions including redox regulation, antioxidant defense, regulation of transcription factors as well as support of cell growth and replication. Many of these functions involve the reduction of Trx, which may subsequently reduce a number of different substrates including ribonucleotide reductase, peroxiredoxins or NFkB. Mammalian TrxR itself also has a broad substrate specificity, reducing both protein and non-protein substrates, including low molecular weight compounds such as dehydroascorbate, lipoic acid, ubiquinone, and juglone. In addition, several drugs in clinical use for anticancer treatment are indeed known to target TrxR1.
This BioAssay is a validation of an NADPH fluorescence-based, dual-purpose qHTS rTrxR1 assay designed to find potential inhibitors and substrates of rTrxR1. For this particular BioAssay, actives are potential inhibitors. See related BioAssay for substrate data deposition.
NIH Molecular Libraries Probe Production Network [MLPCN]
NIH Chemical Genomics Center [NCGC]
Assay Provider: Elias Arner, Karolinska Institute
Assay protocol: 2 uL of reagents (buffer in column 4 as negative control and 90 nM rTrxR1 in columns 1-3 and 5-48) were dispensed into Greiner black solid-bottom 1,536-well assay plates, followed by 1 uL of NADPH (400 uM final concentration) to each well. The plates were centrifuged at 1000 rpm for 15 seconds and subsequently incubated for 5 min at room temperature (~22 deg C) to allow for rTrxR1 reduction. Compounds (23 nL) were then transferred via Kalypsys pin tool equipped with 1536-pin array (10 nL slotted pins, V&P Scientific, San Diego, CA). In addition, a duplicate 2-fold serial dilution of the control compounds auranofin, a known gold-based TrxR1 inhibitor, and juglone (5-hydroxy-1,4-naphthoquinone), a natural TrxR1 substrate, were pin-transferred to columns 2 and 3, respectively. After incubation for 15 min at room temperature (~22 deg C), 1 uL of selenite (400 uM final concentration) were dispensed to each well. The plate was immediately transferred to a ViewLux high-throughput CCD imager (PerkinElmer), wherein kinetic measurements of NADPH fluorescence (Ex 340 nm, Em 450 nm) were acquired (8 minute kinetic read, see Table 1). Read 1 was utilized to assess the capacity of a compound to serve as an rTrxR1 substrate, i.e. a decrease in NADPH fluorescence compared to the no-compound background is an indication of a substrate behavior for that particular compound. For inhibitory activity of a compound, delta values, computed as the difference in fluorescence intensity between the first and last reads of an 8-minute time kinetic window, were used. All reagents were diluted in an assay buffer consisting of 50 mM Tris-HCl, pH 7.5, 2 mM EDTA, and 0.01% Tween-20.
Throughout the screen, reagent bottle and all liquid lines were made light-tight to minimize reagent degradation. All screening operations were performed on a fully integrated robotic system (Kalypsys, San Diego, CA) containing one RX-130 and two RX-90 anthropomorphic robotic arms (Staubli, Duncan, SC). Library plates were screened starting from the lowest and proceeding to the highest concentration, and a 'double-pinning' step of the highest concentration was required to access higher concentrations of compounds. Vehicle-only plates, with DMSO being pin-transferred to the columns 5-48, were inserted uniformly at the beginning and the end of each library in order to monitor and record any shifts in the background, which can be affected by reagent dispensers or loss in enzyme activity over time. […]
% is scaled to controls: 0 for no effect and ±100 for the full control effect; potency is read from the fitted curve at half-maximal effect; tags tell the direction and shape of the fitted curve.

Chain of UniProt O89049 (O89049 whole entry, looked up): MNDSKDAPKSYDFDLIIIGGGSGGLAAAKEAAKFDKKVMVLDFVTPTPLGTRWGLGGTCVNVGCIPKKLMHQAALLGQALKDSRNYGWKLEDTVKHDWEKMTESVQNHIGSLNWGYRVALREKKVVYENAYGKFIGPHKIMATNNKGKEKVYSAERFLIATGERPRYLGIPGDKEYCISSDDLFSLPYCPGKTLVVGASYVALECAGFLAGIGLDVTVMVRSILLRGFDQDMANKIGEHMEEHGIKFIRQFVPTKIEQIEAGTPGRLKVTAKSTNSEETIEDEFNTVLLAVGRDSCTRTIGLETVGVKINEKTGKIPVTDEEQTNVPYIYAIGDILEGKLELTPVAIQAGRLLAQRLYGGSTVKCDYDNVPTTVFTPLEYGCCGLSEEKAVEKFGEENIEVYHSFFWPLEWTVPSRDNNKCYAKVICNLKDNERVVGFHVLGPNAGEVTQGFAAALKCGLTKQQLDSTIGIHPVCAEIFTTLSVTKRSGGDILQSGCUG

| SMILES | activity change, negative = inhibition | Potency |
| --- | --- | --- |
| O=C(CN1CCCC1)Nc1ccc(Br)cc1 | inactive: 16.4% | – |
| CC1CCCC(C)N1/N=C/c1ccccc1F (stereo unspecified) | inactive: 15.8% [at 57.1 µM] | – |
| CCN(C(=O)c1cccc(S(=O)(=O)N(C)C)c1)C12CC3CC(CC(C3)C1)C2 | inactive: -4.71% [at 57.1 µM] | – |
| Cc1ccc(NC(=O)c2cccc(C(=O)Nc3ccc(C)cc3C(=O)O)c2)c(C(=O)O)c1 | – | inconclusive: 79.4 µM [inhibitor, partial curve, poor fit] |
| Cc1cc(OCc2cc(C(=O)N(C)Cc3ccccn3)no2)cc(C)c1Cl | inactive: -3.38% | – |
| CCc1cc2c(=O)n(Cc3ccco3)c(SCc3c(C)noc3C)nc2s1 | – | inconclusive: 10 µM [inhibitor, partial curve] |
| CC(C)(C)NC(=O)NC(=O)CN1CCN(c2ccc(O)cc2)CC1 | inactive: 27.5% [at 57.1 µM] | – |
| N#C/C(=C\c1ccc(-c2cc(Cl)ccc2Cl)o1)C(=O)Nc1cccc2ncccc12 | – | inconclusive: 10.6 µM [inhibitor, partial curve, poor fit] |
| O=C(O)c1cc(-c2ccc(/C=N/Nc3ccc(Cl)cc3)o2)ccc1Cl | – | inconclusive: 20 µM [inhibitor, single point] |
| CCOC(=O)c1c(NC(=O)CCC(=O)N2CCOCC2)sc2c1CC(C)(C)OC2 | – | inconclusive: 8.91 µM [inhibitor, single point] |
| COc1ccc(N2CCN(C(=O)c3ccc(N(C)S(=O)(=O)c4ccc(OC)cc4)cc3)CC2)cc1 | inactive: 6.75% [at 57.1 µM] | – |
| CN(Cc1ccco1)C(=O)CN1C(=O)NC2(CCCC2)C1=O | – | inconclusive: 89.1 µM [inhibitor, single point] |
| Cc1[nH]c(C)c(C(=O)/C=C/c2ccc([N+](=O)[O-])cc2)c1C | – | inconclusive: 44.7 µM [inhibitor, single point] |
| CCC1c2ccc(C)n2CCN1C(=O)Nc1ccc(F)cc1 (stereo unspecified) | – | inconclusive: 79.4 µM [inhibitor, partial curve, poor fit] |
| Cc1ccc(C(=O)O)cc1NC(=S)NCCc1ccccc1 | inactive: -14.3% | – |
| COc1cc(/C=N/N=C2/NC(=O)C(c3ccccc3)S2)ccc1O (stereo unspecified) | – | inconclusive: 79.4 µM [inhibitor, single point] |
| O=C(NN=Cc1ccc(F)cc1)c1cccc(S(=O)(=O)N2CCCC2)c1 | – | inconclusive: 0.631 µM [inhibitor, full curve, poor fit] |
| Cc1ccc(C2=N/C(=C\N3CCCCC3)C(=O)O2)cc1 | – | inconclusive: 35.5 µM [inhibitor, partial curve, poor fit] |
| COc1ccc(-c2nc3c4ccccc4n(CC(=O)Nc4cc(F)ccc4F)c(=O)n3n2)cc1 | inactive: 10.6% [at 57.1 µM] | – |
| O=C(Nc1cccnc1)c1cc(-c2cccnc2)nc2ccc(Br)cc12 | – | inconclusive: 31.6 µM [inhibitor, partial curve, poor fit] |
| CCN(CCCNC(=O)c1ccc2c(c1)NC(=O)CN2C)c1cccc(C)c1 | – | inconclusive: 79.4 µM [inhibitor, single point] |
| Cc1ccc(S(=O)(=O)N2CCCN(C)c3nc4ccccc4nc32)cc1 | inactive: 3.82% | – |
| Cc1ccc(NC(=O)Cc2ccc(-n3c(C)nc4cccnc43)cc2)cc1C | – | inconclusive: 39.8 µM [inhibitor, single point] |
| COC(=O)c1cccc(-n2c(CCC(=O)O)ccc2-c2ccc(OC)cc2)c1 | – | inconclusive: 56.2 µM [inhibitor, partial curve] |

| SMILES | activity change, negative = inhibition | Potency |
| --- | --- | --- |
| COc1ccc(C(=O)Nc2nc3ccccc3[nH]2)cc1OC | inactive: 8.42% | – |
| COc1cc(-c2nc(S(=O)(=O)c3ccc(Cl)cc3)c(N(C)C)o2)cc(OC)c1OC | – | inconclusive: 10 µM [inhibitor, partial curve, poor fit] |
| CCNc1ccccc(-c2ccc3ccccc3n2)c1=O | – | inconclusive: 79.4 µM [inhibitor, single point] |
| CCOC(=O)c1c(C)[nH]c(C)c1S(=O)(=O)N(C)CC(=O)Nc1ccccc1F | – | inconclusive: 50.1 µM [inhibitor, partial curve, poor fit] |
| CCc1ccc(C2NC(=S)NC3=C2C(=O)CCC3)cc1 (stereo unspecified) | inactive: 0.594% [at 57.1 µM] | – |
| CCN(CC)/[N+]([O-])=N/OCOC(=O)Cc1c(C)n(C(=O)c2ccc(Cl)cc2)c2ccc(OC)cc12 | inactive: 13.3% [at 0.457 µM] | – |
| N#Cc1ccccc1/C=N/Nc1nc(-c2ccccc2)c2cc(Br)ccc2n1 | inactive: 14.3% | – |
| COc1ccc(-c2cc(OC(=O)c3ccc(Cl)cc3)c3c(C)oc(C)c3c(=O)c2)cc1 | – | active: 50.1 µM |
| C=CCn1c(SCC(=O)NCCCC)nc2scc(-c3ccco3)c2c1=O | – | active: 44.7 µM |
| O=C(Nc1ccccc1N1CCOCC1)c1ccccc1[N+](=O)[O-] | inactive: 8.35% | – |
| O=C(N/N=C/c1ccccc1)c1ccc(N2CCOCC2)c([N+](=O)[O-])c1 | inactive: 12.2% | – |
| CC1=CC(C)(C)NC(=S)N1c1ccc(C)c(C)c1 | – | inconclusive: 17.8 µM [inhibitor, single point] |
| Cc1ccc(C(=O)N/C(=C\c2cn(C)c3ccccc23)C(=O)NCCN2CCOCC2)cc1 | – | inconclusive: 89.1 µM [inhibitor, partial curve, poor fit] |
| CCOC(=O)C1CCN(S(=O)(=O)c2ccc(C(C)=O)cc2)CC1 | inactive: 10.3% | – |
| CCOc1ccc(S(=O)(=O)NCCc2sc3nc(-c4ccc(F)cc4)nn3c2C)cc1 | inactive: -0.503% [at 57.1 µM] | – |
| COc1ccc(-c2cc(C(F)(F)F)nc(S(=O)(=O)CCCC(=O)Nc3cccc(O)c3)n2)cc1OC | – | inactive and inconclusive: 50.1 µM [inhibitor, partial curve, poor fit] |
| COc1ccc(S(=O)(=O)n2oc(=O)cc2-c2ccccc2)cc1 | – | inconclusive: 11.2 µM [inhibitor, partial curve, poor fit] |
| COCCN(C(C)=O)c1nnc(-c2ccccn2)s1 | inactive: 24.2% | – |
| COc1ccc(CNC(=O)/C=C/c2ccc(S(=O)(=O)N3CCOCC3)cc2)cc1 | inactive: 4.48% [at 57.1 µM] | – |
| Cc1cccc(C)c1OCCn1c(C2CC(=O)N(c3cccc(Cl)c3)C2)nc2ccccc21 (stereo unspecified) | inactive: 20.9% | – |
| Nc1c(-c2nc(-c3cccs3)no2)nnn1-c1ccc(Cl)cc1 | inactive: 17.6% | – |
| COc1cc([N+](=O)[O-])cc(/C=N/NC(=O)c2cccnc2)c1O | inactive: -27.1% | – |
| COc1ccc(Cl)cc1NC(=O)c1c(NCc2ccc(C)o2)sc2c1CCCCC2 | – | inconclusive: 25.1 µM [inhibitor, single point] |
| Nc1nnc(CC(=O)N/N=C/c2cc([N+](=O)[O-])cc(Br)c2O)s1 | – | active: 35.5 µM |

| SMILES | activity change, negative = inhibition | Potency |
| --- | --- | --- |
| CCOc1cc(/C=C2\C(=O)ON=C2c2ccccc2)ccc1OC | – | active: 17.8 µM |
| COC(=O)Cc1c(C)c2cc(Cl)c(OC(=O)c3ccco3)cc2oc1=O | – | inconclusive: 44.7 µM [inhibitor, single point] |
| CCOC(=O)C1CCCN(C(=O)CCn2nnnc2CN2CCOCC2)C1 (stereo unspecified) | – | inconclusive: 70.8 µM [inhibitor, single point] |
| CCc1n[nH]c(=S)n1/N=C/c1ccc(N(CC)CC)cc1 | inactive: -9.96% [at 57.1 µM] | – |
| CC(C)OC(=O)CC1C(=O)NCCN1C(=S)NC(=O)c1cccs1 (stereo unspecified) | – | inconclusive: 79.4 µM [inhibitor, single point] |
| Cc1cc([N+](=O)[O-])ccc1NC(=O)CCC(=O)N1CCCCCC1 | inactive: 25.6% | – |
| Cc1ccc(-c2ccc(CCC(=O)O)n2NC(=O)c2ccco2)cc1 | – | inconclusive: 56.2 µM [inhibitor, partial curve, poor fit] |
| N#Cc1c(NC(=O)c2ccco2)sc2c1CCC2 | – | inconclusive: 79.4 µM [inhibitor, single point] |
| CC(=O)Nc1ccc(OC(=O)c2ccc(Br)c([N+](=O)[O-])c2)cc1 | – | inconclusive: 28.2 µM [inhibitor, single point] |
| CCOC(=O)CC(NS(=O)(=O)c1ccc2[nH]c3c(c2c1)CCCC3)c1ccccc1Cl (stereo unspecified) | – | inconclusive: 89.1 µM [inhibitor, single point] |
| CCN(C(=O)COC(=O)c1ccc([N+](=O)[O-])o1)c1cccc2ccccc12 | – | inconclusive: 70.8 µM [inhibitor, single point] |
| Cc1ccccc1N/N=C/c1sc(=O)n(Cc2cccc(C(=O)O)c2)c1Cl | – | active: 50.1 µM |
| Cc1ccc(C(=O)O)cc1-c1ccc(/C=C2/NC(=O)N(c3ccccc3)C2=O)o1 | – | inconclusive: 12.6 µM [inhibitor, single point] |
| Fc1ccc(C(Nc2ccccn2)c2c[nH]c3ccccc23)cc1 (stereo unspecified) | – | inconclusive: 7.94 µM [inhibitor, full curve, poor fit] |
| O=C(COc1ccccc1)N(Cc1ccco1)C1CCS(=O)(=O)C1 (stereo unspecified) | – | inconclusive: 31.6 µM [inhibitor, single point] |
| CCN(CC)CCN1C(=O)C(O)=C(C(=O)c2cccs2)C1c1ccccn1 (stereo unspecified) | – | inconclusive: 50.1 µM [inhibitor, partial curve] |
| CC(C)c1ccc(NC(=O)C2CCCN(S(=O)(=O)c3cccc4cccnc34)C2)cc1 (stereo unspecified) | inactive: 12.3% | – |
| COc1ccc(CNCCc2ccccc2)cc1OCC(N)=O | – | inconclusive: 28.2 µM [inhibitor, full curve] |
| COC(=O)C1=C(O)/C(=C\c2ccc(CNS(=O)(=O)c3ccccc3)o2)N=C1C | – | inconclusive: 31.6 µM [inhibitor, single point] |
| O=C(Nc1ccccc1)c1nnsc1S(=O)(=O)c1ccc(Cl)cc1 | – | inconclusive: 2 µM [inhibitor, partial curve, poor fit] |
| CN(C)c1ccc(/C=C/c2ccnc3ccc(Br)cc23)cc1 | inactive: -7.79% | – |
| Cc1ccc(OC(C)C(=O)Nc2nonc2-c2ccc(Br)cc2)cc1C (stereo unspecified) | inactive: 3.39% | – |
| CC(C)c1nnc(NC(=O)CCS(=O)(=O)c2ccccc2)s1 | – | inconclusive: 79.4 µM [inhibitor, single point] |
